The inconclusive results got no clear call from the source; some entries with a clear call stand among them for comparison. Calls of active or inactive are those of the source. Calls follow the shape of the dose curve; as a rule, active = well fitted curve in either direction with a large enough effect (not every such curve was filed as active); inconclusive = small, poorly fitted or top-dose-only effect, or another doubt; inactive = flat fitted curve, though single readings scatter.
Test: AP1 Signaling Pathway (AID 357); also: top concentration of the series differs between compounds
Conditions: ME-180 (cervical carcinoma) AP-1-bla reporter, EGF-induced, beta-lactamase ratio, 5 h; at 17.2 µM (top of the series) unless noted
How it was run: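 First, ME-180 AP-1-bla cells were cultured overnight at 37 °C in low-serum Opti-MEM. Next, titrated compounds with EC50 EGF were incubated 5 hours. Finally, CCF4 was added for 2.5 hours and the 460/530 nm ratio recorded.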
% is scaled to controls: 0 for no effect and ±100 for the full control effect.

**Q.** Which activity change, negative = inhibition does the source give for COc1ccc(C(=O)N/C(N)=N/c2nc3ccccc3o2)cc1 here?
**A.** Its activity change, negative = inhibition is inconclusive: 31% [activator].

**Q.** With Nc1ncnc2nn([C@H]3O[C@@H](CO)[C@@H](O)[C@H]3O)nc12 as the compound, how does the activity change, negative = inhibition read?
**A.** Its activity change, negative = inhibition is inactive: -9.36% [at 7.69 µM].

**Q.** Which activity change, negative = inhibition does the source give for COCCn1c(=O)c(C)nc2cnc(N3CCNCC3)nc21 here?
**A.** The activity change, negative = inhibition was inactive: -21.3% [at 7.69 µM].

**Q.** With Cc1ccc(OCC(O)CNS(=O)(=O)c2ccccc2C(=O)O)cc1 (stereo not drawn) as the compound, how does the activity change, negative = inhibition read?
**A.** Its activity change, negative = inhibition is inconclusive: 40.1% [activator].

**Q.** With COc1cccc(OC)c1C(=O)Nc1nc2ccc(S(C)(=O)=O)cc2s1 as the compound, how does the activity change, negative = inhibition read?
**A.** Its activity change, negative = inhibition is inactive: -25.1%.

**Q.** For CCC[C@@H]1C[C@@H](C(=O)N[C@H]([C@@H](C)O)[C@H]2O[C@H](SC)[C@H](O)[C@@H](O)C2O)N(C)C1 (stereo partly drawn), which activity change, negative = inhibition is on record?
**A.** The activity change, negative = inhibition was inconclusive: 3.23% [activator].

**Q.** For COc1ccccc1-n1c(=O)c2c3c(sc2n2c(SC(C)C)nnc12)CCC3, which activity change, negative = inhibition is on record?
**A.** The activity change, negative = inhibition was inactive: -5.57%.

**Q.** With N#CC(C(=O)Nc1ccc(Cl)c(Cl)c1)=C1Nc2ccccc2N1 as the compound, how does the activity change, negative = inhibition read?
**A.** The activity change, negative = inhibition was inconclusive: 73.1% [activator].

**Q.** Which activity change, negative = inhibition does the source give for Cc1[nH]ccc2c1[nH]c1cc(=O)ccc12 here?
**A.** The activity change, negative = inhibition was inconclusive: -37.1% [inhibitor].

**Q.** For OCCN[C@@H]1c2cc(Cl)ccc2-c2c(Cl)cc(Cl)cc21, which activity change, negative = inhibition is on record?
**A.** The activity change, negative = inhibition was inconclusive: -34.3% [inhibitor] [at 7.69 µM].

**Q.** For Clc1ccc(-n2ncc3c(NCc4ccccn4)ncnc32)cc1, which activity change, negative = inhibition is on record?
**A.** The activity change, negative = inhibition was inconclusive: -36.3% [inhibitor].

**Q.** Which activity change, negative = inhibition does the source give for Cc1c(C2Nc3ccccc3NC3=C2C(=O)CC(C)(C)C3)cnn1C (stereo not drawn) here?
**A.** Its activity change, negative = inhibition is inactive: -9.46%.

**Q.** For COc1ccc(C(=O)N2CCC[C@@]3(CCN(Cc4ccccc4OC)C3)C2)cc1, which activity change, negative = inhibition is on record?
**A.** Its activity change, negative = inhibition is inactive: 11.7% [at 7.69 µM].

**Q.** Which activity change, negative = inhibition does the source give for O=C(c1cccc(F)c1)N1CCC[C@@]2(CCN(Cc3ccncc3)C2)C1 here?
**A.** Its activity change, negative = inhibition is inactive: -12% [at 7.69 µM].

**Q.** Which activity change, negative = inhibition does the source give for CN1CCN(CCCCC(=O)c2ccccc2)CC1 here?
**A.** Its activity change, negative = inhibition is inactive: 16.6%.

**Q.** Which activity change, negative = inhibition does the source give for N#Cc1nc(-c2ccc(F)cc2)oc1N1CCCC1 here?
**A.** Its activity change, negative = inhibition is inactive: 0.0908%.

**Q.** With Cn1c(N2CCN(c3ccccn3)CC2)nc2c1c(=O)n(Cc1ccccc1Cl)c(=O)n2C as the compound, how does the activity change, negative = inhibition read?
**A.** Its activity change, negative = inhibition is inactive: 4.27%.

**Q.** For COc1cc(C2C(C#N)=C(N)Oc3cc(C)n(CCc4ccccc4)c(=O)c32)cc2c1OCO2 (stereo not drawn), which activity change, negative = inhibition is on record?
**A.** The activity change, negative = inhibition was inconclusive: -24.9% [inhibitor].

**Q.** With CC(C)(C)c1ccc(OC(=O)Nc2ccc(O)c(C(=O)O)c2)cc1 as the compound, how does the activity change, negative = inhibition read?
**A.** Its activity change, negative = inhibition is inactive: -0.0209% [at 7.69 µM].

**Q.** Which activity change, negative = inhibition does the source give for COc1ncc2nc(-c3ccc(Cl)cc3)c(=O)n(CCC#N)c2n1 here?
**A.** Its activity change, negative = inhibition is inactive: -9.68% [at 7.69 µM].

**Q.** Which activity change, negative = inhibition does the source give for c1ccc(N2CCN(c3nc(-c4ccccn4)nc4ccccc34)CC2)cc1 here?
**A.** The activity change, negative = inhibition was inconclusive: 3.38% [activator].

**Q.** Which activity change, negative = inhibition does the source give for COCCOC(=O)c1c(C)oc2ccc(OC(=O)COc3c(F)c(F)c(F)c(F)c3F)cc12 here?
**A.** The activity change, negative = inhibition was inconclusive: 21.1% [activator].

**Q.** With Cc1cc(C(=O)O)c(CSc2ncn[nH]2)o1 as the compound, how does the activity change, negative = inhibition read?
**A.** Its activity change, negative = inhibition is inactive: 12.5%.

**Q.** With CC(=O)O[C@H]1CC[C@@]2(C)C(=CC[C@@H]3[C@@H]4CC[C@H](c5cc(C(F)(F)F)n(C(C)=O)n5)[C@]4(C)CC[C@@H]32)C1 as the compound, how does the activity change, negative = inhibition read?
**A.** Its activity change, negative = inhibition is inconclusive: 30.9% [activator] [at 7.69 µM].

**Q.** Which activity change, negative = inhibition does the source give for C=CCNc1nc(-c2ccc(O)c(C(N)=O)c2)cs1 here?
**A.** Its activity change, negative = inhibition is inactive: -14.5%.

**Q.** Which activity change, negative = inhibition does the source give for COc1c(NC(C)=O)c2ccccc2c2ccccc12 here?
**A.** Its activity change, negative = inhibition is inactive: -1.26% [at 7.69 µM].

**Q.** With CN(C)CCCN1C(=O)C(O)=C(C(=O)c2cc3ccccc3o2)C1c1ccccc1 (stereo not drawn) as the compound, how does the activity change, negative = inhibition read?
**A.** The activity change, negative = inhibition was inactive: 8.55%.

**Q.** For C[C@H]1[C@H](C)OC(=O)C[C@H](O)C[C@H](O)C[C@H](O)CC[C@H](O)[C@H](O)CC(=O)C[C@H](O)[C@H](C(=O)O)[C@H](O)C[C@H](O[C@@H]2O[C@@H](C)[C@H](O)[C@@H](N)[C@@H]2O)C=CC=CC=CC=CCCC=CC=C[C@@](C)(O)[C@H]1O, which activity change, negative = inhibition is on record?
**A.** Its activity change, negative = inhibition is inactive: 4.16% [at 7.69 µM].

**Q.** With CC1(C(=O)CSc2n[nH]c(-c3ccccc3Cl)n2)CCC(=O)O1 (stereo not drawn) as the compound, how does the activity change, negative = inhibition read?
**A.** Its activity change, negative = inhibition is inactive: 6.38%.

**Q.** Which activity change, negative = inhibition does the source give for C=CCc1cccc(/C=N/n2cnnc2)c1O here?
**A.** The activity change, negative = inhibition was inactive: -1.43%.

**Q.** For CSc1nc2[nH]c3c(c2c2nncn12)CC(C)(C)OC3, which activity change, negative = inhibition is on record?
**A.** The activity change, negative = inhibition was inactive: -4.3%.

**Q.** Which activity change, negative = inhibition does the source give for Cc1n[nH]c2ccccc2c1=O here?
**A.** Its activity change, negative = inhibition is inactive: -6.55% [at 7.69 µM].

**Q.** With C=C1[C@@H](C)C2[C@H](Cc3ccccc3)NC(=O)[C@]23OC(=O)CC[C@H](O)CCC[C@H](C)C/C=C/[C@H]3[C@@H]1O (stereo partly drawn) as the compound, how does the activity change, negative = inhibition read?
**A.** The activity change, negative = inhibition was active: -80.8%.

Source: PubChem BioAssay (NCATS)
